The results in this text go back to publication PMC12820563, “FoxP3 forms a head-to-head dimer in vivo and stabilizes its multimerization on adjacent microsatellites”.

Some of the results follow.

In the experiment the target is T1, MBP-FoxP1dN (Mus musculus, UniProt P58462 326-579).
T1 sequence: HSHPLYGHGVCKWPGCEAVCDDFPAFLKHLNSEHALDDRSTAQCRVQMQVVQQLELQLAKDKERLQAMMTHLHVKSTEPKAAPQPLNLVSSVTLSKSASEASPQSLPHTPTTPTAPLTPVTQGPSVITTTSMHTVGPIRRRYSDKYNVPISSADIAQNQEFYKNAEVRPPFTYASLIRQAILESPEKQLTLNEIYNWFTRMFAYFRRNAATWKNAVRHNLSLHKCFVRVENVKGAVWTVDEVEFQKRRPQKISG
The experiment is described as follows: PD-seq (MBP pull-down with sequencing); 20 mM Tris-HCl pH 7.5, 100 mM NaCl, 1.5 mM MgCl2, 0.4 uM protein, 0.1 uM dsDNA library, 30 min, room temperature, amylose pull-down; high values mean tight binding. The settings on record: protein: recombinant; tags: His6-MBP; chain copies: 2; dsDNA, one strand shown. An outline of the steps:
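A degenerate double-stranded DNA library, filled in with Klenow, was added at 0.1 µM to 0.4 µM His6-MBP-tagged mouse FoxP3 or FoxP1 fragment lacking the N-terminus, expressed in E. coli. Incubation lasted 30 min at room temperature in Tris pH 7.5 buffer with NaCl and MgCl2, after which complexes were collected on amylose resin, washed three times, digested with proteinase K to free the DNA, barcoded by PCR and sequenced by Illumina. Binding is the pooled-replicate reads-per-million enrichment of pull-down over input.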
For “GATGATTGTTCTCCCAGCTGATGAATTGAGATCGTCGAGTAAACAAATTTTCCTAATCTTTCTGTTCAAGCGCCATCTAC”, the binding signal is 0.837 RPM ratio (pull-down/input). The figure for “GATGATTGTTCTCCCAGCTGATGAATTTCACGTGTCGAGTAAACAAATTTTCCTAATCTTTCTGTTCAAGCGCCATCTAC” is 0.808 RPM ratio (pull-down/input). Next, “GATGATTGTTCTCCCAGCTGATGAATTGTTTGGGTCGAGTAAACAAATTTTCCTAATCTTTCTGTTCAAGCGCCATCTAC”: 1.79 RPM ratio (pull-down/input); “GATGATTGTTCTCCCAGCTGATGAATTGTTCTACTCGAGTAAACAAATTTTCCTAATCTTTCTGTTCAAGCGCCATCTAC”: 1.15 RPM ratio (pull-down/input); “GATGATTGTTCTCCCAGCTGATGAATTTACAATTTCGAGTAAACAAATTTTCCTAATCTTTCTGTTCAAGCGCCATCTAC”: 1.4 RPM ratio (pull-down/input). On to “GATGATTGTTCTCCCAGCTGATGAATTCGCCTACTCGAGTAAACAAATTTTCCTAATCTTTCTGTTCAAGCGCCATCTAC”, for which the binding signal was 0.81 RPM ratio (pull-down/input). As for “GATGATTGTTCTCCCAGCTGATGAATTGCCATCGTCGAGTAAACAAATTTTCCTAATCTTTCTGTTCAAGCGCCATCTAC”, the binding signal is 0.975 RPM ratio (pull-down/input). Consider “GATGATTGTTCTCCCAGCTGATGAATTGAGCACGTCGAGTAAACAAATTTTCCTAATCTTTCTGTTCAAGCGCCATCTAC”, for which the binding signal is 0.881 RPM ratio (pull-down/input). For the sequence “GATGATTGTTCTCCCAGCTGATGAATTGGAAAGTTCGAGTAAACAAATTTTCCTAATCTTTCTGTTCAAGCGCCATCTAC”, the binding signal was 0.81 RPM ratio (pull-down/input). Consider “GATGATTGTTCTCCCAGCTGATGAATTCAGTTGTTCGAGTAAACAAATTTTCCTAATCTTTCTGTTCAAGCGCCATCTAC”, for which the binding signal is 1.33 RPM ratio (pull-down/input).

Regarding “GATGATTGTTCTCCCAGCTGATGAATTCTACTATTCGAGTAAACAAATTTTCCTAATCTTTCTGTTCAAGCGCCATCTAC”, the binding signal was 0.911 RPM ratio (pull-down/input).

With “GATGATTGTTCTCCCAGCTGATGAATTAATCGAGTCGAGTAAACAAATTTTCCTAATCTTTCTGTTCAAGCGCCATCTAC”, the binding signal was 0.914 RPM ratio (pull-down/input). For the sequence “GATGATTGTTCTCCCAGCTGATGAATTACAACGCTCGAGTAAACAAATTTTCCTAATCTTTCTGTTCAAGCGCCATCTAC”, the binding signal was 1.18 RPM ratio (pull-down/input). The figure for “GATGATTGTTCTCCCAGCTGATGAATTACACCGTTCGAGTAAACAAATTTTCCTAATCTTTCTGTTCAAGCGCCATCTAC” is 1.17 RPM ratio (pull-down/input); for “GATGATTGTTCTCCCAGCTGATGAATTACATTGCTCGAGTAAACAAATTTTCCTAATCTTTCTGTTCAAGCGCCATCTAC” it is 1.21 RPM ratio (pull-down/input). For “GATGATTGTTCTCCCAGCTGATGAATTCTCGCCCTCGAGTAAACAAATTTTCCTAATCTTTCTGTTCAAGCGCCATCTAC”, the binding signal is 0.794 RPM ratio (pull-down/input). Next, “GATGATTGTTCTCCCAGCTGATGAATTAAGCCGATCGAGTAAACAAATTTTCCTAATCTTTCTGTTCAAGCGCCATCTAC”: 0.836 RPM ratio (pull-down/input); “GATGATTGTTCTCCCAGCTGATGAATTTCCTACGTCGAGTAAACAAATTTTCCTAATCTTTCTGTTCAAGCGCCATCTAC”: 0.837 RPM ratio (pull-down/input); “GATGATTGTTCTCCCAGCTGATGAATTGCACCGATCGAGTAAACAAATTTTCCTAATCTTTCTGTTCAAGCGCCATCTAC”: 1.16 RPM ratio (pull-down/input). As to “GATGATTGTTCTCCCAGCTGATGAATTCCGTATTTCGAGTAAACAAATTTTCCTAATCTTTCTGTTCAAGCGCCATCTAC”, the binding signal is 0.942 RPM ratio (pull-down/input). Next, “GATGATTGTTCTCCCAGCTGATGAATTTGCGCTATCGAGTAAACAAATTTTCCTAATCTTTCTGTTCAAGCGCCATCTAC”: 1.09 RPM ratio (pull-down/input); “GATGATTGTTCTCCCAGCTGATGAATTACAGAGTTCGAGTAAACAAATTTTCCTAATCTTTCTGTTCAAGCGCCATCTAC”: 1.03 RPM ratio (pull-down/input); “GATGATTGTTCTCCCAGCTGATGAATTACTGCATTCGAGTAAACAAATTTTCCTAATCTTTCTGTTCAAGCGCCATCTAC”: 1.36 RPM ratio (pull-down/input).

With “GATGATTGTTCTCCCAGCTGATGAATTCACGAGTTCGAGTAAACAAATTTTCCTAATCTTTCTGTTCAAGCGCCATCTAC”, the binding signal is 0.817 RPM ratio (pull-down/input). Regarding “GATGATTGTTCTCCCAGCTGATGAATTACAGGTTTCGAGTAAACAAATTTTCCTAATCTTTCTGTTCAAGCGCCATCTAC”, the binding signal was 1.19 RPM ratio (pull-down/input). The figure for “GATGATTGTTCTCCCAGCTGATGAATTTCTAGATTCGAGTAAACAAATTTTCCTAATCTTTCTGTTCAAGCGCCATCTAC” is 0.871 RPM ratio (pull-down/input); for “GATGATTGTTCTCCCAGCTGATGAATTAGCCGATTCGAGTAAACAAATTTTCCTAATCTTTCTGTTCAAGCGCCATCTAC” it is 0.875 RPM ratio (pull-down/input).

Turning to “GATGATTGTTCTCCCAGCTGATGAATTTTGTACCTCGAGTAAACAAATTTTCCTAATCTTTCTGTTCAAGCGCCATCTAC”, the binding signal is 0.964 RPM ratio (pull-down/input). On to “GATGATTGTTCTCCCAGCTGATGAATTCTAGAAATCGAGTAAACAAATTTTCCTAATCTTTCTGTTCAAGCGCCATCTAC”, for which the binding signal is 0.972 RPM ratio (pull-down/input).

“GATGATTGTTCTCCCAGCTGATGAATTTTTCTGTTCGAGTAAACAAATTTTCCTAATCTTTCTGTTCAAGCGCCATCTAC”: the binding signal was 0.964 RPM ratio (pull-down/input). For the sequence “GATGATTGTTCTCCCAGCTGATGAATTTACGGGTTCGAGTAAACAAATTTTCCTAATCTTTCTGTTCAAGCGCCATCTAC”, the binding signal was 1.11 RPM ratio (pull-down/input).
